Laboratory results reported in PubChem BioAssay AID1347073 (National Center for Advancing Translational Sciences (NCATS), 2019).
In all, about 45,000 compounds went through this assay and about 200 (0.44%) were called active. Another 7% or so got no clear call; they are omitted. Calls follow the shape of the dose curve; as a rule, active = well fitted activation curve with a large enough effect; inconclusive = small, poorly fitted or top-dose-only effect; inactive = no such curve, though single readings can be large or run the other way. Some of the results follow.

Assay: qHTS of TDP-43 Inhibitors: NCGC Sytravon Library Screen; also: 0% is about no effect; nearly all actives have a fitted effect of over 55% in size
Conditions: yeast TDP-43 toxicity rescue, BacTiter-Glo growth, 24 h; series mostly up to 46.1 µM; growth rescue (activation): at the top concentration
Outline: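 TDP-43-expressing yeast, pregrown in raffinose, seeded at OD600 0.02 in galactose medium with compound for 24 hr at 30 deg C. Growth read by BacTiter-Glo luminescence, so rescue of toxicity appears as activation.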

| Compound | growth rescue (activation) |
| --- | --- |
| COc1ccc(CC(=O)Nc2nc(OCCN3CCCC3=O)cnc2-c2cccc(C(F)(F)F)c2)cc1 | inactive: 3.54% |
| CC(/C=N/NC(=O)c1ccc(CN2c3cccc4cccc(c34)S2(=O)=O)cc1)c1ccccc1 (configuration not stated) | inactive: 3.2% |
| COc1ccc(Cl)cc1-c1noc([C@@H]2O[C@H](CO)[C@H](O)[C@H](O)[C@H]2O)n1 | inactive: 2.17% |
| Cc1cc(C(=O)N/N=C/c2ccncc2)c2ccccc2n1 | inactive: 3.08% |
| O=C(N/N=C/C=C\c1ccc([N+](=O)[O-])cc1)c1cccnc1 | inactive: 4.21% |
| Cc1onc(-c2ccccc2)c1C(=O)N1CCOC12CCN(c1cccc(F)n1)CC2 | inactive: 11.4% |
| Cc1nnc(SCC(=O)Nc2cccc([N+](=O)[O-])c2)n1CC1CCCO1 (configuration not stated) | inactive: -0.747% |
| CCOc1ccc(S(=O)(=O)N2CCC(C(=O)N3CCN(C)CC3)CC2)cc1Cl | inactive: 3.74% |
| CN1C(=O)[C@@H]2[C@@H]3C[C@@H]([C@H]4ON=C(c5ccccc5OCC#N)[C@@H]34)[C@@H]2C1=O | inactive: 3.41% |
| c1csc(C2=Nn3c(nnc3-c3ccncc3)SC2)c1 | inactive: 12.6% |
| S=c1nc(-c2cc(Cl)ccc2Cl)[nH][nH]1 | inactive: -9.91% |
| COc1ccc(N2CCN(C(=O)[C@@H](NC(=O)c3ccccc3Cl)C(C)C)CC2)cc1 | inactive: 15.6% |
| Cc1ccc[n+](/C(=C\C(=C=[N-])C#N)C(=O)c2ccc(Cl)cc2)c1 | inactive: 9.72% |
| O=C(Nc1ccc(NC(=O)c2cccnc2)cc1)c1ccccc1 | inactive: -2% |
| CC(C)OP(=O)(c1ccc(N(C)C)cc1)C(Nc1ccccc1)c1cccnc1 (configuration not stated) | inactive: 13.7% |
| COCCc1ccc(OC2(C)CCN(Cc3cccc(OC)c3OC)C2)cc1 (configuration not stated) | inactive: 17% |
| CCN(CC)c1ccc(S(=O)(=O)N(CC)CC)cc1NC(=O)C1CCCC1 | inactive: 5.61% |
| NC1=NC(=O)/C(=C/c2ccc(Cl)cc2Cl)S1 | inactive: 2.86% |
| CCCNC(=O)c1cc(-c2ccc3c(c2)OCO3)on1 | inactive: -13.4% |
| COC(=O)c1[nH]c(C)c(/C(O)=C2\C(=O)C(=O)N(CCN3CCOCC3)C2c2cccs2)c1C (configuration not stated) | inactive: 6.46% |
| Cc1ccc(S(=O)(=O)/N=C(/NNC(=O)c2cccc(Cl)c2)c2ccccc2)cc1 | inactive: 13.9% |
| COc1ccc(CN2CC(=O)N(c3ccccc3OC)C2=S)cc1OC | inactive: -10.8% |

| Compound | growth rescue (activation) |
| --- | --- |
| Cc1cccc(C)c1OCC(O)CN(Cc1ccccc1O)C1CCCCC1 (configuration not stated) | inactive: 14.2% |
| COc1cc(NC(=O)c2cccc(COCC(F)(F)C(F)F)c2)cc(OC)c1OC | inactive: -20.1% |
| O=C(/C=C/c1cn(-c2ccccc2)nc1-c1cccnc1)NCCN1CCOCC1 | inactive: 0.202% |
| Nc1nnc(CSCc2ccccc2Cl)s1 | inactive: 9.67% |
| O=C(C1=C(O)C(=O)N(CCOCCO)C1c1ccccn1)c1cccs1 (configuration not stated) | inactive: -2.52% |
| CCNC(=S)NNc1nc(N2CCCCC2)nc(N2CCOCC2)n1 | inactive: 14% |
| O=C(CSc1nnc(-c2ccc(F)cc2)n1-c1ccccc1)NCCN1C(=O)CSC1=O | inactive: 8.71% |
| Cc1c(NC(=O)COC(=O)c2c3c(nc4ccccc24)CCCC3)c(=O)n(-c2ccccc2)n1C | inactive: 1.94% |
| CCn1ncc(Br)c1C(=O)Nc1cccc(C(C)=O)c1 | inactive: -11.2% |
| CCOc1ccc(CCNc2nc3ccccc3n3cnnc23)cc1OCC | inactive: 13.9% |
| CCC(=O)N(CCc1ccccc1C)Cc1cc2cc3c(cc2[nH]c1=O)OCO3 | inactive: -6.84% |
| Cc1ccc2c(c1)/C(=C/c1ccco1)C(=O)N2 | inactive: 16.9% |
| Cc1cc(=O)[nH]c(SCC(=O)Nc2ccc(Br)cc2)n1 | inactive: 0.754% |
| CCOc1cc(/C=N/N=C2/NC(=O)C(CC(=O)O)S2)ccc1OCc1ccccc1Cl (configuration not stated) | inactive: 12.6% |
| COc1cccc(CNC(=O)Cn2cccc2C(=O)c2ccccc2)c1 | inactive: 20.2% |
| Cc1cccc(C)c1NC(=O)NC1(C(=O)NCC2CCCO2)CCCCC1 (configuration not stated) | inactive: -13.2% |
| CCOC(=O)C1Nc2ccc(C(=O)O)cc2C2C=CCC12 (configuration not stated) | inactive: -1.29% |
| COc1ccc(NC(=O)c2cc(C)nc3ccccc23)cc1S(=O)(=O)N1CCOCC1 | inactive: -12.1% |
| CCc1ccc(-c2nc(SCC(=O)c3c(N)n(C)c(=O)n(C)c3=O)n[nH]2)cc1 | inactive: -31.7% |
| CN(c1ccccc1)S(=O)(=O)c1cccc(NC(=O)Cc2c(F)cccc2Cl)c1 | inactive: 9.22% |
| Cc1c(Cc2c(C)n(C)n(-c3ccccc3)c2=O)c(=O)n(-c2ccccc2)n1C | inactive: -0.0079% |
| CCOC(=O)/C(N=Nc1ccc(F)cc1)=C(/O)c1ccc([N+](=O)[O-])cc1 | inactive: 5.49% |

| Compound | growth rescue (activation) |
| --- | --- |
| NC(=O)c1nsc(C(=O)N(CCCN2CCOCC2)C(C(=O)NC2CCCCC2)c2ccc(Cl)cc2)c1N (configuration not stated) | inactive: 2.34% |
| Cc1ccsc1-c1cc2nc(NCCCN(C)C)n(C)c(=O)c2s1 | inactive: 8.8% |
| C[C@H](NS(=O)(=O)c1ccc(F)cc1)C(=O)OCC(=O)c1c(N)n(C)c(=O)n(C)c1=O | inactive: -2.21% |
| CCN(CC)c1nc(Oc2ccc(C(=O)NN)cc2)nc(Oc2ccc(C(=O)NN)cc2)n1 | inactive: 0.166% |
| COc1ccc(C(=O)Nc2cc(NC(=O)c3ccco3)ccc2OC)cc1Cl | inactive: -4.57% |
| Cc1noc(C(=O)Nc2ccc(F)cc2F)c1Cl | inactive: -8.17% |
| COc1ccccc1OCc1ccc(C(=O)Nc2ccccc2F)cc1 | inactive: 5.14% |
| CSCCC(NC(=O)COc1ccccc1)C(=O)O (configuration not stated) | inactive: -4.18% |
| Cc1c(NC(=O)C(=O)/C=C(\O)c2ccc(Br)cc2)c(=O)n(-c2ccccc2)n1C | inactive: -40.2% |
| CC(=O)Nc1ccc(S(=O)(=O)N2CCC(c3nc4c(nnn4Cc4ccccc4Cl)c(=O)[nH]3)CC2)cc1 | inactive: 9.6% |
| Cc1ccccc1NC(=O)CCCNC(=O)c1ccc(Cl)cc1 | inactive: 8.49% |
| Cc1ccc(C)c(NS(=O)(=O)c2ccc(OCC(=O)NCc3cccnc3)cc2)c1 | inactive: 6.89% |
| CCc1nc(Nc2ccccc2F)c2oc3ccccc3c2n1 | inactive: -0.583% |
| O=C(Cn1nnc2ccccc21)N/N=C/c1ccco1 | inactive: 5.9% |
| CCCNCc1cc(OC)c(OCC(=O)Nc2ccccc2)cc1Br | inactive: 10.6% |
| CCOc1ncccc1C(=O)OCC(=O)Nc1ccc(C(C)C)cc1 | inactive: 12.3% |
| CCc1cc(Br)ccc1N1C(=O)C2CC=CCC2C1=O (configuration not stated) | inactive: 12.8% |
| COc1ccccc1N(CC(=O)NCCSc1ccc(Cl)cc1)S(C)(=O)=O | inactive: -0.269% |
| COc1cc(/C=C(\C#N)C(=O)NC2CCCCC2C)ccc1OS(=O)(=O)c1ccc(C)cc1 (configuration not stated) | inactive: -0.588% |
| Cc1cc(OCC(=O)Nc2ccc3oc(=O)ccc3c2)ccc1Cl | inactive: 9.98% |
| CC(=O)N1N=C(c2ccccc2)CC1c1cccs1 (configuration not stated) | inactive: 23.3% |
| O=C(O)C1C2C=CC(O2)C1C(=O)NC1CCCc2ccccc21 (configuration not stated) | inactive: 1.63% |

| Compound | growth rescue (activation) |
| --- | --- |
| O=C(O)CCC(=O)/C=C/c1ccccc1 | inactive: 23.3% |
| COc1ccc(C(=O)NCCNc2nc3cc(C)c(C)cc3cc2C)cc1 | inactive: -22.4% |
| NNC(=O)CCCNc1ncc(C(F)(F)F)cc1Cl | inactive: 2.77% |
| CSc1cccc(CN2CCN(CCC(C)C)C(CCO)C2)c1 (configuration not stated) | inactive: 11% |
| Cc1ccc(O)c(CO)n1 | inactive: -2.27% |
| COc1cc(CN2CCCCCC2)cc(OC)c1 | inactive: 5.2% |
| CCCN(C(=O)c1ccc2c(=O)n3c(nc2c1)CCCCC3)c1cccc(Cl)c1 | inactive: -3.57% |
| O=C1CCCc2[nH]c(-c3ccccc3)nc21 | inactive: 14.1% |
| COc1ccccc1C(=O)N1CCCC1(C#N)c1ccccc1 (configuration not stated) | inactive: -19.1% |
| COc1ccc([N+](=O)[O-])cc1N(CC1CO1)S(=O)(=O)c1ccc(C)cc1 (configuration not stated) | inactive: 16.7% |
| COc1cccc(CN2CCC2(C)C(=O)NCc2cccc(C(F)(F)F)c2)c1OC (configuration not stated) | inactive: 1.22% |
| CC(=O)Nc1ccc(-c2ccnc3c2CC(C(=O)NCc2cccc(Cl)c2)O3)cc1 (configuration not stated) | inactive: 0.306% |
| COc1cccc(OCC(=O)NNC(=O)Cc2cccs2)c1 | inactive: 20.9% |
| CCN(CC)c1ccc(/C=N/Nc2cccc(C)c2)c(O)c1 | inactive: 11.5% |
| Cc1cccc(NC(=O)CN2C(=O)C(c3ccc(F)cc3)=NC23CCCCCC3)c1C | inactive: 3.52% |
| CCc1c(C)nc2c(OC)cccc2c1SCCC(=O)O | inactive: 11.8% |
| CCc1ccccc1NC(=S)N=Nc1c(O)n(C)c2ccc(S(=O)(=O)N3CCOCC3)cc12 | inactive: 1.69% |
| Cc1cc(C)nc(NC(=O)c2c(C(=O)O)noc2C)n1 | inactive: -1.63% |
| CCCSc1ccc2nc(-c3ccccc3)cn2c1 | inactive: -24.2% |
| CC(=O)Oc1ccc2c(=O)oc(-c3ccccc3)nc2c1 | inactive: -0.421% |
| CC(C)(C)c1ccc(OCCn2nc(C(=O)O)c3ccccc3c2=O)cc1 | inactive: -8.9% |
| COc1ccc(N(C(=O)c2snc(C(N)=O)c2N)C(C(=O)NC2CCCC2)c2cc(OC)ccc2OC)c(OC)c1 (configuration not stated) | inactive: -0.0536% |

| Compound | growth rescue (activation) |
| --- | --- |
| Cc1ccc(NS(=O)(=O)c2ccc(C(=O)OCC(=O)Nc3cc(C)on3)cc2)cc1 | inactive: 15.6% |
| CCCCOc1ccc(NC(=S)Nc2cc(C)nc(SCCCC)n2)cc1 | inactive: 5.15% |
| Cc1cc(C)nc(NS(=O)(=O)c2ccc(NC(=O)C3CC3)cc2)n1 | inactive: 2.91% |
| COc1ccc(C(=O)NC(=O)COC(=O)C2CC2C)cc1 (configuration not stated) | inactive: 27.4% |
| Cc1ccc(SCc2nnc(N)s2)cc1 | inactive: 13.5% |
| O=C1CCC(C(=O)Nc2cccc(S(=O)(=O)N3CCOCC3)c2)N1 (configuration not stated) | inactive: 11.2% |
| CC(=O)c1cn(CC(=O)Nc2ccccc2C)c2ccccc12 | inactive: 18.2% |
| O=C(NC1CCCC1)C(NS(=O)(=O)c1ccc(Br)s1)c1ccccc1 (configuration not stated) | inactive: 7.97% |
| COc1ccc(NC(=O)Cn2c(=O)oc3cc(S(=O)(=O)N4CCCC4)ccc32)cc1OC | inactive: 3.83% |
| CCCCn1c(N)c(N(CCOC)C(=O)CCc2ccc(OC)cc2)c(=O)[nH]c1=O | inactive: -2.78% |
| COc1ccc(-c2[nH]ncc2CN(C)CCc2c(C)n[nH]c2C)c(F)c1 | inactive: -11.5% |
| c1ccc(Oc2ccc(-c3ccnc4nc(N5CCOCC5)nn34)cc2)cc1 | inactive: 28.2% |
| O=S(=O)(c1ccccc1)N1CCN(C(=S)Nc2ccc(F)cc2)CC1 | inactive: 21.2% |
| O=C(O)c1nc(NCCc2ccccc2)ncc1Cl | inactive: -11.2% |
| C[C@@H](C(=O)Nc1nccs1)N1C(=O)C2CC=CCC2C1=O (some centres not stated) | inactive: 4.46% |
| CCN(CC(=O)NC1CCS(=O)(=O)C1)S(=O)(=O)c1ccc(C)cc1C (configuration not stated) | inactive: 0.496% |
| COc1ccc(/C(C)=N/N=C(N)N)c(O)c1 | inactive: -14.9% |
| CC(=O)c1cc(F)ccc1OCC(=O)N1CCN(c2ccc(F)cc2)CC1 | inactive: 12.4% |
| O=C(NC1C=CS(=O)(=O)C1)c1ccccc1 (configuration not stated) | inactive: -7.95% |
